# In the supplement of paper PMC3724861:
# Some of the results follow.
# Test system: T1, Caupolican (Caup) homeodomain DNA-binding domain
# T1 sequence: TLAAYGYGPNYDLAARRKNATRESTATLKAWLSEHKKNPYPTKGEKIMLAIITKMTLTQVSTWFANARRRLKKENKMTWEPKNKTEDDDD
# Test: PBM E-score (8-mer, recovered from the published 9-mer minima) (E-score (dimensionless, -0.5 to 0.5)); Drosophila protein; higher = stronger relative binding preference, active = 0.31 or more
# Procedure, shortened: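 Caup's homeodomain DNA-binding domain (residues 214-303) was made by in vitro transcription and translation and applied at 100 nM to custom-designed protein binding microarrays. Each value is an enrichment score that gives relative binding preference for a short DNA word, with higher meaning stronger. The 8-mer values were recovered from published 9-mer scores, each of which was the minimum of its two constituent 8-mer scores. A cutoff of 0.31 marks candidate sites.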
row,Sequence,PBM E-score
1,GATCAATA,inactive: 0.0795
2,AGAAACTA,inactive: 0.0526
3,CTCAGCTA,inactive: -0.122
4,AGGAACAT,active: 0.339
5,TATGAGAA,inactive: 0.102
6,CTCACCAG,inactive: -0.105
7,ACCAAGTC,inactive: -0.0398
8,CGGTGCAA,inactive: 0.0179
9,ACGCATGA,inactive: 0.0194
10,TGAGCACA,inactive: 0.0593
11,CAATTCAC,inactive: 0.111
12,CCTCACGC,inactive: -0.0937
13,ACGTACCT,inactive: 0.0612
14,AATTCCGT,inactive: 0.0876
15,CCCCGACA,inactive: 0.0258
16,GACGTTGA,inactive: 0.00712
17,AGCAGGCG,≥ -0.0534
18,CGGGCCGC,inactive: -0.245
19,CAGACGGC,inactive: -0.144
20,GCACAGGC,inactive: -0.0733
21,TACAAAAA,inactive: 0.255
22,AACATTAG,inactive: 0.271
23,CCCTCCAC,inactive: -0.218
24,CAGCAGGG,inactive: -0.172

row,Sequence,PBM E-score
1,CGTCACAC,inactive: 0.069
2,CGTGACTC,inactive: -0.0603
3,ATCAAAAA,inactive: 0.107
4,GATATCCA,≥ 0.135
5,ACCGCGCG,inactive: -0.123
6,TATCCTGA,inactive: 0.0685
7,ATAAGACG,inactive: 0.123
8,ACAACTGG,inactive: 0.0957
9,TTCTAGAA,inactive: -0.0405
10,ACGGGTCC,inactive: -0.18
11,ATTACCAG,inactive: 0.0804
12,ACATCTCA,inactive: 0.19
13,GAGTGACC,inactive: -0.0763
14,GGCAATTA,inactive: -0.00055
15,CGACTTAC,inactive: -0.0464
16,GGATTGGA,inactive: -0.00273
17,ACAGTAAA,inactive: 0.124
18,AAGGGCAG,inactive: -0.129
19,CATATAGC,inactive: 0.0802
20,CGCCACCA,inactive: -0.272
21,ATGGTTAC,inactive: 0.207
22,GCGTAACC,inactive: -0.0415
23,CAGAATCC,inactive: 0.0417
24,CCGTTGAA,inactive: -0.092

row,Sequence,PBM E-score
1,ACTAAACC,inactive: 0.00838
2,ACGAGTGC,inactive: 0.0719
3,CCCACCTA,inactive: -0.1
4,ATCGGCTA,inactive: 0.0053
5,TATAACGA,inactive: 0.138
6,GAGAGGCA,inactive: -0.216
7,AGGCACCG,inactive: -0.0703
8,CCACACCA,inactive: 0.0142
9,TCATTTAA,inactive: 0.167
10,CGTGGCAA,inactive: -0.0386
11,CGATAGTC,inactive: 0.00431
12,AGAACTCT,inactive: -0.0309
13,GTACCGAC,inactive: 0.0197
14,TCTGGTAA,inactive: 0.133
15,AAACAAAG,inactive: 0.107
16,ATGGATAC,inactive: 0.159
17,GTCGCCAC,inactive: -0.11
18,AAGTAAAC,inactive: 0.199
19,AGTACGGG,inactive: -0.0625
20,CTTTCGGC,inactive: -0.0228
21,CCTTCGTA,inactive: -0.151
22,CACATCTG,inactive: 0.0639
23,AATCGCAA,inactive: -0.00305
24,CTGTTTAA,inactive: 0.111

row,Sequence,PBM E-score
1,ATACCGGC,inactive: -0.0451
2,CCGTATCA,inactive: -4e-05
3,ATGAATCA,inactive: 0.114
4,GACAAGTC,inactive: 0.236
5,ATAACGGG,inactive: -0.0575
6,TTGATAAA,inactive: 0.151
7,CACGGGGA,inactive: -0.146
8,ATTACAAG,active: ≥ 0.427
9,ACATTATA,inactive: 0.245
10,CTCTTCCA,inactive: -0.116
11,GCTAATAC,inactive: 0.0902
12,CCCTTTCA,inactive: -0.126
13,GTGGCCTA,inactive: -0.163
14,ATGGGGTG,inactive: -0.023
15,GGTTACGA,inactive: -0.0197
16,CAGCGAAA,inactive: -0.0247
17,CACTTTAC,inactive: 0.103
18,ATTAAGGC,inactive: -0.0527
19,AGGACGCC,inactive: -0.128
20,CGTCTAAC,inactive: -0.00299
21,CTAATCAA,inactive: 0.179
22,AGGTCGAA,inactive: -0.0135
23,AAGAATGT,inactive: 0.199
24,CGACCCGA,inactive: -0.151

row,Sequence,PBM E-score
1,CCAGGCGG,inactive: -0.185
2,AGACGCGC,inactive: -0.0474
3,GGTCCCAC,inactive: -0.204
4,GGGTGGCA,inactive: -0.202
5,AATAGCGT,inactive: 0.0707
6,GAATGACA,inactive: 0.259
7,TCCGAGAA,inactive: 0.0132
8,CCATAAAC,inactive: 0.00834
9,GTAAGCGA,inactive: 0.0662
10,CAGGTAAG,inactive: 0.0455
11,CGAGCTCA,inactive: -0.105
12,AGGCGGTA,inactive: -0.139
13,CTGCAGGA,inactive: -0.0296
14,CATACACG,active: 0.325
15,ACACAAAT,inactive: 0.184
16,AAGCATGG,inactive: 0.00906
17,AGCTAACC,inactive: -0.0905
18,ACTGATAT,inactive: 0.161
19,AACACGAG,inactive: 0.266
20,CCGCAGAG,inactive: -0.223
21,ATTGCATA,inactive: 0.113
22,ATGATGCA,≥ 0.172
23,CGATAACA,inactive: 0.244
24,CGTTCAGA,inactive: 0.034

row,Sequence,PBM E-score
1,CGGCGATA,inactive: 0.0135
2,AGTACAAA,inactive: 0.26
3,AAACTGCC,inactive: -0.00805
4,CGCTACCC,inactive: -0.164
5,CAACACTG,inactive: 0.0579
6,GCCTGGAA,inactive: -0.0661
7,ACATGTAG,active: 0.476
8,CAAACCAA,inactive: 0.112
9,ACACGCGG,inactive: 0.151
10,GCTACACC,inactive: 0.0733
11,ATATAGCA,inactive: 0.128
12,ACCTGAGG,inactive: -0.104
13,GCGATAGA,inactive: -0.0431
14,AAGATTAC,inactive: 0.0786
15,ATCGTTGG,inactive: 0.0483
16,AAGTATCA,inactive: 0.158
17,GTTACCCA,inactive: 0.0172
18,ATATGCAC,inactive: 0.103
19,AGGTGGTC,inactive: -0.0482
20,GATCGGAC,inactive: 0.106
21,GGATTGAC,inactive: 0.0664
22,ACGCCAAA,inactive: -0.0402
